{
  "source": "paper PMC12136788",
  "binders": {"B1": {"name": "chr22:32894459:32894460:+_ENSG00000100225_ENST00000397426|hu_hu|FALSE|FALSE (ssRNA)", "RNA": "GGGAGUUCUACAGUCCGACGAUCACAAAUCAAUCACAUGAAUGACAGCCGGCCAUCAGUUGGCCGACCCCUGCUGGGUCUAAAGGGAAAUCUGUCAUUGGGGCCGCCUCGCCCUGGCAAGAUGGGGUUAGGUCCUGGAAGUGGCAACAGAGGAUUGAGCAUCA"}, "B2": {"name": "chr11:118025658:118025659:-_ENSMUSG00000017132_ENSMUST00000017276|mus_mus|motif|central (ssRNA)", "RNA": "GGGAGUUCUACAGUCCGACGAUCUUUGUAUUUUGACAAAUAUUUUUUAAACAAAUACAAAAUAAUCUAAAAGGAGAAAAACGGUGUGUGGAUUAUUUACACCUCUGAUAAAUAGACUGACACUGAGCCAGGUGCUGGCCUGCCCAACAGAGGAUUGAGCAUCA"}, "B3": {"name": "chr1:168330043:168330044:-_ENSMUSG00000040596_ENSMUST00000169324|mus_hu|FALSE|FALSE (ssRNA)", "RNA": "GGGAGUUCUACAGUCCGACGAUCCUUGGCAGCCUGGCAGUUGUUGGUACUCUCAGCAUAUUCCACUACCAUCAGCUUGAACCCUGCGUCGUAACUGCGGCGCAUGCCCCGGCUGAACUGAAACUUCCCAGCUAUGUCAUCAGCCAACAGAGGAUUGAGCAUCA"}, "B4": {"name": "chr11:29608612:29608613:+_ENSMUSG00000020458_ENSMUST00000102843|mus_mus|FALSE|FALSE (ssRNA)", "RNA": "GGGAGUUCUACAGUCCGACGAUCUUGAGAUUCCAAAGCAGAAACAUUUGGAAGCAAUAAGGGCACCUUAGAUACACUGGACCUACUUUUGGAGAAUUCAUCUGAGACAUGUGCUUCAUCUUUAGGAUAUGUAUUCUUGAAAGACAACAGAGGAUUGAGCAUCA"}, "B5": {"name": "chr2:120842415:120842416:+_ENSMUSG00000023572_ENSMUST00000060455|mus_mus|FALSE|FALSE (ssRNA)", "RNA": "GGGAGUUCUACAGUCCGACGAUCCUCUCCUAGCCUGGAGUCUUGGUAACAAUCUCUUCUUAAGGACAGAGGCUGCCUUUCUAUCGAGCAAACACCCUGUCAAAGCUCCACUUCUAAAAGCAGACGUUAAAAAAACUUAAAAAACAACAGAGGAUUGAGCAUCA"}, "B6": {"name": "chr1:171751117:171751118:+_ENSG00000010165_ENST00000361735|hu_hu|FALSE|FALSE (ssRNA)", "RNA": "GGGAGUUCUACAGUCCGACGAUCCUUUUAGGUAAGAGGUUCAUGUUCCUACUGCCGAAGCUGCGUUUUCAAGACUCCCCUAUUCCCUGUGAGAUACCAUUUGAGGAGCUUGCCCACCACACGCAGGCUCCGGGACACUGCAGUCAACAGAGGAUUGAGCAUCA"}, "B7": {"name": "chrX:71549400:71549401:+_ENSMUSG00000019087_ENSMUST00000019231|mus_hu|mus_mus_mus_hu_False|48_98 (ssRNA)", "RNA": "GGGAGUUCUACAGUCCGACGAUCGCAGUAGGAAGAGCAAACCUUUCCAGUCCAGUGCGCUGCAGGGUGGGAAAGCAACAACACGGAACCAAUACUCCCCUCAACCCCCCCACUGGCACAGGGUCACACAAUCUGGGUCAAAGACAACAGAGGAUUGAGCAUCA"}, "B8": {"name": "27457493_27458172_3948_CDS_ENSG00000084774_ENST00000264705|human|control|control (ssRNA)", "RNA": "GGGAGUUCUACAGUCCGACGAUCCAUUUCCACACCCAACACCACGUCAGCACCCGCCAAGCGGGAGAAGGAGAACUGAGGCACCUUUACUCCCACGACUCCAGAACCAGUCAUUAGCCCCACAGGUUCCACUUCUUCCCCCAUCAACAGAGGAUUGAGCAUCA"}, "B9": {"name": "chr7:56126341:56126342:+_ENSG00000146731_ENST00000540286|hu_mus|hu_hu_hu_mus_True|68_88 (ssRNA)", "RNA": "GGGAGUUCUACAGUCCGACGAUCCAUGUUUCUCCUCUUGGCUCUGCGCAGAGCAACGAUCCCUUCUUUUGAAAGAGCAUCUAAGGAAAAGGGGUCAAUCCCCUUUUGAUUAAUAACGACAAAUCCUUUAUCUGAGUCACCACACAACAGAGGAUUGAGCAUCA"}, "B10": {"name": "chrX:17825403:17825404:+_ENSMUSG00000037369_ENSMUST00000044484|mus_hu|FALSE|FALSE (ssRNA)", "RNA": "GGGAGUUCUACAGUCCGACGAUCAUGAGCUUGUUGCUGUACUGGAGGAUGUGACACAGCAUGUCCACCACUCCAAUUGUCAGAAGUAUUCUGCUGUGCUGUGUUCAUGGCACCCUGCCUGGAGGUAAGCUCUGCGGGAAUUGGCAACAGAGGAUUGAGCAUCA"}, "B11": {"name": "chrX:71549762:71549763:+_ENSMUSG00000019087_ENSMUST00000019231|mus_hu|FALSE|FALSE (ssRNA)", "RNA": "GGGAGUUCUACAGUCCGACGAUCAAACCCGUGUACUUCUUAUUGUUAGCACAACAUCACCAGAAAACGAUAACGACAGCCAAGCAGGACAGACAGUUAAGUAGUACUUCCACACUCCCAAACUCAGGGAGCCCUAUAACCUUACAACAGAGGAUUGAGCAUCA"}, "B12": {"name": "chr12:70286429:70286430:+_ENSMUSG00000043998_ENSMUST00000060579|mus_mus|FALSE|FALSE (ssRNA)", "RNA": "GGGAGUUCUACAGUCCGACGAUCACACUCCUGCUGCUUCAGUUUCCACAUCUUUUUGAAGACAUGGUAAAAGUCUGGGGCUAAGUAGUGGUCCUCUUCCAGGAAGAGUAUAAGGCCAGUGUAAUCUUGAAGAACUUUGACUCUCAACAGAGGAUUGAGCAUCA"}, "B13": {"name": "chr16:94664741:94664742:+_ENSMUSG00000040785_ENSMUST00000117648|mus_hu|mus_mus_mus_hu_False|1_28 (ssRNA)", "RNA": "GGGAGUUCUACAGUCCGACGAUCUGGUACUGAUCUUGGUAGCUGAUAUUCAGGAGAAAGGCUGGCCAAGGGUGUAUAUAUGCUGGUGUACUGGGGCAAACCUGGUACCAUGUUAAUGUAUGCUGGCGGUGUCUGGGUGCCAAACAACAGAGGAUUGAGCAUCA"}, "B14": {"name": "chr9:128199989:128199990:-_ENSG00000119487_ENST00000373498|hu_mus|motif|central (ssRNA)", "RNA": "GGGAGUUCUACAGUCCGACGAUCCAAAGAAGCACACUUGACUCUGAGAUGCUUAGACACAAUGAUUUAAAAAAUGUCCGGAACACAGGUCGUAUAAGAUAUCGGCUGUGGCCCUGGCCCAAGGAUGCUGCCACAGGCGGGACCCAACAGAGGAUUGAGCAUCA"}},
  "note": "This is one part of the list.",
  "data": [
    {"biological_target": "T1, UNK ZnF1-3 (human, UniProt Q9C0B0 31-174)", "T1 sequence": "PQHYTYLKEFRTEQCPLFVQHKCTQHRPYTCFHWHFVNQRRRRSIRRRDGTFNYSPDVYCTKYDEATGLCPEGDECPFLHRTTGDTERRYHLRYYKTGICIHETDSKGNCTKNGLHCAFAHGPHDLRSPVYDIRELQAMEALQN", "experiment": "nsRBNS (natural sequence RNA bind-n-seq); RBNS binding buffer (assumed for nsRBNS): 25 mM Tris pH 7.5, 150 mM KCl, 3 mM MgCl2, 0.01% Triton X-100, 500 ug/ml BSA, 20 U/ml SUPERase-In, 4 C; UNK is unkempt and MSI1 is Musashi-1; names of the RNAs are library labels; protein concentration not given here; high values mean tight binding", "units": {"binding signal": "enrichment R"}, "values": [
      {"binder": "B1", "binding signal": 1.16},
      {"binder": "B2", "binding signal": 1.18},
      {"binder": "B3", "binding signal": 0.707},
      {"binder": "B4", "binding signal": 0.984},
      {"binder": "B5", "binding signal": 0.956},
      {"binder": "B6", "binding signal": 0.745},
      {"binder": "B7", "binding signal": 1.77},
      {"binder": "B8", "binding signal": 1.31},
      {"binder": "B9", "binding signal": 2.07},
      {"binder": "B10", "binding signal": 0.601},
      {"binder": "B11", "binding signal": 1.44},
      {"binder": "B12", "binding signal": 0.752},
      {"binder": "B13", "binding signal": 1.19},
      {"binder": "B14", "binding signal": 1.32}
    ]}
  ]
}
